Laboratory results from the RNAGym collection of RNA variant scans (doi:10.7554/elife.90254).
Read counts are not given, so values of variants with three or more changes are uncertain.

B1: LINE1-mini (parent)
chain: GGCAGAGCUCAACACAGCGUGGCAAAGUGGCUGUGGCUAGACUGCC

Variants of: B1
Assay: self-cleavage, relative activity (ratio to wild type); higher = more cleavage; in vitro, sequencing; the parent is a self-cleaving ribozyme
C10A C18U A26U gave a self-cleavage of 0.06. U9G G22A C45G gave a self-cleavage of 0.04. C10A A12C C15A G22C gave a self-cleavage of 0. C10A A26C G33C G40C showed a self-cleavage of 0.02. Work on C10A C15A U20G A24C yielded a self-cleavage of 0.05. Variant C10A A24G U28A C31U G44A has a self-cleavage of 0.03. For C10A A12C A26U, the self-cleavage was 0.01. U9G G33U C45U gave a self-cleavage of 0.09. Variant C10A A41C C45A has a self-cleavage of 0.02. With C10A C13A G17U U32C C37G the self-cleavage was 0.01. With C10A C18G A26U C31G the self-cleavage was 0.01. With C10A C18U G21U the self-cleavage was 0.14. C10A A25G G27U U38G G44A showed a self-cleavage of 0.02. In the case of C10A C13A G29C, the self-cleavage is reported as 0.02. C10A A12C G17A C23U C31G C37U gave a self-cleavage of 0. For U9G G19A G27U, the self-cleavage was 0.05. With C10A C13U G19U C46A the self-cleavage was 0.03. With C10A C15U C31G G40C the self-cleavage was 0.01. U9G G27A U43A C45A gave a self-cleavage of 0. U9G G19U C45G gave a self-cleavage of 0.05. U9G U20C C31A showed a self-cleavage of 0.05. With U9G U32G U34G G36C the self-cleavage was 0. Work on C10A C18G C45U yielded a self-cleavage of 0.19. With C10A A11U U20C A25U U38C G40C G44U the self-cleavage was 0. With C10A A39G A41G the self-cleavage was 0. U9G G29A G35C gave a self-cleavage of 0.05. U9G G21U C37U gave a self-cleavage of 0.24. U9G G29C G36A gave a self-cleavage of 0.08. C10A C13U A16U G36C C46U gave a self-cleavage of 0.05. C10A A24C G27U gave a self-cleavage of 0.05. U9G G17U G22C G35C showed a self-cleavage of 0.02. With C10A C23G A24G C46A the self-cleavage was 0.11. C10A A16C G29U G33A G36U A41G gave a self-cleavage of 0.01. C10A A12G A26G U32A gave a self-cleavage of 0.03. Work on C10A C13U A16G G40U C45G C46A yielded a self-cleavage of 0.01. Variant C10A A26G G29A has a self-cleavage of 0.03. With C10A A26U G36U the self-cleavage was 0. C10A A26C A39C gave a self-cleavage of 0.04. Work on U9G G21C G27A yielded a self-cleavage of 0.05. In the case of U9G G35U C45A, the self-cleavage is reported as 0.02. U9G G21A G30U A41C gave a self-cleavage of 0.04. Work on C10A A25U G27A U32A yielded a self-cleavage of 0.04. Variant U9G G22A U34G G36A has a self-cleavage of 0.16. In the case of C10A C18U U34A G40A U43G, the self-cleavage is reported as 0.01. With C10A C18A G29U the self-cleavage was 0.03. C10A A24C C46U gave a self-cleavage of 0.03. C10A A11C A39G G44U gave a self-cleavage of 0.04. U9G G29C G33C G36A showed a self-cleavage of 0.01. Work on U9G U32G G35C yielded a self-cleavage of 0.02. U9G G21C G29A U34A C42G C45A showed a self-cleavage of 0.04. C10A A11G A12U U28G U38C showed a self-cleavage of 0. U9G G19U C23A U34C showed a self-cleavage of 0.18. In the case of C10A C13G G36A G40C, the self-cleavage is reported as 0.01. Work on C10A C13A G19U yielded a self-cleavage of 0.1. With U9G G27C G36A the self-cleavage was 0.53. C10A A12G G22U G29C A41G showed a self-cleavage of 0. C10A A24U G29A G33C G44U showed a self-cleavage of 0.02. In the case of U9G G33C A41U G44A C46U, the self-cleavage is reported as 0.04. With U9G G22C G40U U43G the self-cleavage was 0.01. C10A C15A G44C C46U showed a self-cleavage of 0.03. Work on C10A C15U G22C G29U yielded a self-cleavage of 0.06. In the case of C10A C13A G22C G27U U43C, the self-cleavage is reported as 0.01. With C10A C18U C45U C46A the self-cleavage was 0.01. C10A A16C A26G showed a self-cleavage of 0.04. Work on U9G G35U G36U C42A C45A yielded a self-cleavage of 0.09. C10A A24G G27U U43A gave a self-cleavage of 0.02. In the case of C10A A26U C31A U32G U34C, the self-cleavage is reported as 0.03. U9G G21U G22A U28A C45U showed a self-cleavage of 0.06. For U9G G21C A25C, the self-cleavage was 0.05. C10A C15G U32G G36U gave a self-cleavage of 0.01. Work on U9G G19U U20A C37U yielded a self-cleavage of 0. In the case of C10A C18G G30U, the self-cleavage is reported as 0.17. Variant C10A A11U A24U C31A has a self-cleavage of 0.01. Work on C10A A16G C18U U28G G33U yielded a self-cleavage of 0. With C10A C13U A39C the self-cleavage was 0.06. U9G U34G C42A showed a self-cleavage of 0.07. C10A C18A G30U G36A C46A showed a self-cleavage of 0.01. In the case of U9G G21U A41G G44U, the self-cleavage is reported as 0.01. Work on C10A A11U G35U yielded a self-cleavage of 0.01. C10A A25C G44U gave a self-cleavage of 0.01. In the case of C10A A12U U43C, the self-cleavage is reported as 0.01. Variant U9G G22U U28C G36C U43G has a self-cleavage of 0. Variant C10A A14C C15U C45G has a self-cleavage of 0.02. In the case of C10A A41G C46U, the self-cleavage is reported as 0.04. In the case of C10A A12G G21U C31U G44C, the self-cleavage is reported as 0.01. C10A A41U U43G showed a self-cleavage of 0. Work on C10A A24G U28A C31G U38C yielded a self-cleavage of 0.03. Work on C10A C18A U38G A39U yielded a self-cleavage of 0.13. With C10A A16G G19A G40U C46A the self-cleavage was 0. In the case of C10A A25U G33C, the self-cleavage is reported as 0.02. For C10A A16U G19C G29C, the self-cleavage was 0.02. C10A A14U G22U showed a self-cleavage of 0.17. With C10A A14U A25G the self-cleavage was 0.01. For C10A C23A A25G U38G A41G, the self-cleavage was 0. Variant C10A C13A G21U A25C A26U U32A C42A has a self-cleavage of 0.02. In the case of C10A C13G G19A G35U, the self-cleavage is reported as 0.06. C10A A11G C15A gave a self-cleavage of 0.03. For U9G G21U G22U A39C G40A, the self-cleavage was 0.02. For U9G G21U U32A, the self-cleavage was 0.02. Variant U9G G21U U32G has a self-cleavage of 0.03. C10A C15A G19A U28A G35C showed a self-cleavage of 0.01. For U9G G22A C23G A39G U43A, the self-cleavage was 0.02. In the case of C10A A12U C31U G44U C45A, the self-cleavage is reported as 0.02. With C10A C15A G27U the self-cleavage was 0.01. Work on C10A A16G U20C yielded a self-cleavage of 0.03. Work on U9G U38G A41C yielded a self-cleavage of 0. C10A C23A G35A showed a self-cleavage of 0.01. U9G U32C G35C G40A showed a self-cleavage of 0.09. C10A C13G C37U G40U showed a self-cleavage of 0.02. Work on U9G G19A A26U G30A yielded a self-cleavage of 0.16. C10A C13G A16C G44A gave a self-cleavage of 0.01. C10A C15G G21U G27A G33C gave a self-cleavage of 0.01. C10A C23A G33A C46A gave a self-cleavage of 0.02. C10A C13U G19A U20A G33C gave a self-cleavage of 0.01. Work on C10A A25G G30U yielded a self-cleavage of 0.36. In the case of C10A A24G U28C C45U C46A, the self-cleavage is reported as 0.02. For C10A C13U G17C C23A G27C U38G A39C, the self-cleavage was 0.02. U9G G36A A41C gave a self-cleavage of 0.03. Variant C10A A14C A16G has a self-cleavage of 0.05. U9G G30A U32C C42U showed a self-cleavage of 0.04. C10A A11U C18U G19U U20G C31A C45A showed a self-cleavage of 0.01. C10A C13U U32G showed a self-cleavage of 0.03. For C10A A24C U38A A39G, the self-cleavage was 0.02. For U9G G19U C23G A25C G29C, the self-cleavage was 0.05. With C10A A11U G29U G36A the self-cleavage was 0.02. With U9G G27C C45G the self-cleavage was 0.09. With C10A C13U A25U C31U the self-cleavage was 0.04. Work on C10A A11U A12U G35C yielded a self-cleavage of 0.03. For C10A C13A G30A, the self-cleavage was 0.04. C10A C13U C37U C42A showed a self-cleavage of 0.01. C10A A11G A16C G29A A39C showed a self-cleavage of 0. Variant C10A A11G A16U has a self-cleavage of 0.03. C10A A25G G40A C42A C45G gave a self-cleavage of 0.01. Variant C10A A12C A16C C23A has a self-cleavage of 0.02. For C10A C15G U20C G27U C31G, the self-cleavage was 0.06. U9G U20G G29C G30C C31A G36U C37U gave a self-cleavage of 0.01. For C10A A12U C13G G30C, the self-cleavage was 0.04. U9G U20A G29C showed a self-cleavage of 0.01. For C10A C13A C37A A41C C42U, the self-cleavage was 0. In the case of C10A C15U G30A U34A G35A C46A, the self-cleavage is reported as 0.05. For C10A A12C C37G C42U, the self-cleavage was 0. With C10A A14G G27U the self-cleavage was 0.04. In the case of C10A C15G G35A C42A, the self-cleavage is reported as 0. In the case of C10A A14C G17A, the self-cleavage is reported as 0.04. C10A C15G A41C gave a self-cleavage of 0. C10A A25U G29C C37G C46G showed a self-cleavage of 0.01. With C10A C13A A25G U34A the self-cleavage was 0.01. U9G G29A G40A gave a self-cleavage of 0.02. U9G U20G C45U gave a self-cleavage of 0.37. Variant C10A A11C G22U A39U has a self-cleavage of 0.01. With U9G G29C G30A U32A the self-cleavage was 0.01. For C10A A12C A16C A39U, the self-cleavage was 0.01. With U9G U20A A25U the self-cleavage was 0.03. With U9G U20A A25C the self-cleavage was 0.14. With C10A A16C C31G the self-cleavage was 0.02. Variant C10A A26G C42A has a self-cleavage of 0.01. In the case of C10A A14C A39C, the self-cleavage is reported as 0.02. For C10A C15G G35C, the self-cleavage was 0.01. Work on C10A A12U C18G G21U yielded a self-cleavage of 0.04. With C10A C18U G22U C23U G30U the self-cleavage was 0.02. For C10A A24C C42U, the self-cleavage was 0.04. In the case of C10A C13A C15U C31A C42A C46U, the self-cleavage is reported as 0.01. With U9G G30C U34A G44A C45A the self-cleavage was 0. C10A A25C U28A showed a self-cleavage of 0.05. With C10A A14C G17U G30U the self-cleavage was 0. In the case of C10A C18A G19A G27U C42U, the self-cleavage is reported as 0.02. For C10A A26G U28A, the self-cleavage was 0.15.
